Reference: ChEMBL document CHEMBL1811835, “Intramolecular ion-pair prodrugs of zanamivir and guanidino-oseltamivir” (Bioorg Med Chem, 2011)

Each molecule was assayed on Influenza A virus (assay: microbe, parasite or virus in culture). Details: A/WSN/1933 (H1N1), MDCK, 48 h.

| SMILES | EC50 [µM] |
| --- | --- |
| CCC(CC)O[C@@H]1C=C(C(=O)O)C[C@H](NC(=N)N)[C@H]1NC(C)=O | 0.008 |
| O=C(O)c1ccc2ccccc2c1O [CARBOXYNAPHTHOL] | > 1000 |
| CCC(CC)O[C@@H]1C=C(C(=O)OCCCOC(=O)c2ccc3ccccc3c2O)C[C@H](NC(=N)N)[C@H]1NC(C)=O | 1.47 |
| CCOC(=O)C1=C[C@@H](OC(CC)CC)[C@H](NC(C)=O)[C@@H](NC(=N)N)C1 | 1.17 |
| CC(=O)N[C@H]1[C@H]([C@H](O)[C@H](O)CO)OC(C(=O)OCCCOC(=O)c2ccc3ccccc3c2O)=C[C@@H]1NC(=N)N | 0.048 |
| CC(=O)N[C@H]1[C@H]([C@H](O)[C@H](O)CO)OC(C(=O)O)=C[C@@H]1NC(=N)N [ZANAMIVIR] | 0.034 |
| CCOC(=O)C1=C[C@H](NC(=N)N)[C@@H](NC(C)=O)[C@H]([C@H](O)[C@H](O)CO)O1 | 0.106 |
